Molecules are shown by their SMILES.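 Method: 48-hour compound exposure of cells in 96-well plates, five concentrations, linear interpolation of endpoints. GI50: concentration for 50% inhibition of growth. At the TGI there is no net growth.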

The assay concerns NCI-H322M lung. The assay is described as follows: DTP human tumour cell line panel, 48 h.
As usually defined, the GI50 is the concentration at which growth is held to half of that of the control. The term TGI denotes the concentration giving total growth inhibition. `C#C[C@]1(O)CC[C@H]2[C@@H]3CC=C4c5sc(-c6ccc([N+](=O)[O-])cc6)nc5CC[C@]4(C)[C@H]3CC[C@@]21C`: the GI50 was 12.5 µM and the concentration for total growth inhibition (TGI) was 25.1 µM.
For `CC(=O)Nc1ccc(-c2cn(-c3cccc(C(=O)Nc4cc(CN5CCOCC5)cc(C(F)(F)F)c4)c3)nn2)cn1` the same measures were 2 µM and 4.17 µM.
The like results for `C=C(C)[C@@H]1CC[C@]2(COP(=O)(OCC)OCC)CC[C@]3(C)[C@H](CC[C@@H]4[C@@](C)(CCCN)[C@H](C(=C)C)CC[C@]43C)[C@@H]12` were, in that order, 10.3 µM and 21.9 µM.

Source of the values: PubChem BioAssay (NCI).
